According to PubChem BioAssay AID1466 (National Center for Advancing Translational Sciences (NCATS), 2008):
Screen size: about 200,000 compounds; about 10 (0.005%) were called active. Inconclusive results, whose numbers are uncertain, are shown with a selection of clear calls. Calls follow the shape of the dose curve; as a rule, active = well fitted inhibition curve with a large enough effect; inconclusive = small, poorly fitted or top-dose-only effect, or effect the other way, or another doubt; inactive = no such curve, though single readings can be large or run the other way. Potencies of inconclusive entries are left out as doubtful fits.

target: Lysosomal alpha-glucosidase (Homo sapiens) (UniProt P10253); experiment: qHTS Assay for Inhibitors of Human alpha-Glucosidase as a Potential Chaperone Treatment of Pompe Disease; details: purified human GAA, 4-MU-alpha-glucoside fluorescence; activity change, negative = inhibition: at 76.9 µM (top of the series) unless noted;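 as to activity change, negative = inhibition: plate controls were uninhibited enzyme wells for no effect and no-enzyme background for full effect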
Summary of the method: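 Compounds are titrated up to 77 uM against 4 nM human enzyme. Substrate 4-methylumbelliferyl-alpha-D-pyranoside (400 uM) reacts 20 min at room temperature in pH 5.0 buffer; liberated 4-methylumbelliferone is read at 440 nm.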
Potency is read from the fitted curve at half-maximal effect; tags tell the direction and shape of the fitted curve.

SMILES	Potency	activity change, negative = inhibition
CCOc1nnc(C)c2c(C)n(-c3cccc(Cl)c3)nc12	inconclusive [inhibitor, single point]	–
CCOC(=O)Cc1nnc(NC(=O)CSc2nncn2C)s1	inconclusive [inhibitor, partial curve]	–
COc1ccc(C(=O)C2CCCN(Cc3c(C)[nH]c4ccccc34)C2)c(OC)c1 (stereo not given)	inconclusive [inhibitor, single point]	–
CCCN(CCC)CCCNC(=O)C(NS(=O)(=O)c1ccc2c(c1)CCC(=O)N2)c1ccccc1 (stereo not given)	inconclusive [inhibitor, single point]	–
CCN1CCN(c2ccc(NC(=O)c3cccnc3)cc2Cl)CC1	–	inconclusive: -15% [inhibitor]
O=C1CCCc2nc3c(cc21)C(O)Oc1c-3ccc2ccccc12 (stereo not given)	inconclusive [inhibitor, full curve]	–
CC(C)=C1C2CCC1C(C(=O)Nc1cc(C)cc(C)c1)C2C(=O)O (stereo not given)	–	inconclusive: 16.7% [activator]
COC(=O)CC1Oc2ccc(C)cc2NC1=O (stereo not given)	inconclusive [inhibitor, full curve]	–
N#CCCn1cc(C(=O)Nc2ccc(C(=O)O)cc2)c(-c2cc3ccccc3o2)n1	inconclusive [inhibitor, full curve, poor fit]	–
Cc1noc(/C=C/N(C)C)c1S(=O)(=O)N1CCCC(C(=O)N2CCCCC2)C1 (stereo not given)	–	inconclusive: -15.5% [inhibitor]
CC(NC(=O)C1CCCO1)c1ccccc1 (stereo not given)	inconclusive [inhibitor, single point]	–
O=C(CN1C(=O)NC2(CCCCCC2)C1=O)Nc1ccc(S(=O)(=O)N2CCOCC2)cc1	inconclusive [inhibitor, single point]	–
Cc1[nH]nc(SCC(=O)NC(C)c2ccccc2)c1[N+](=O)[O-] (stereo not given)	inconclusive [inhibitor, full curve, poor fit]	–
S=C(c1ccc(-c2ccc(Cl)c(Cl)c2)o1)N1CCOCC1	inconclusive [inhibitor, single point]	–
O=C(Nc1ccc2ccccc2c1)NC1CCS(=O)(=O)C1 (stereo not given)	–	inconclusive: 17.6% [activator]
COc1ccc(Oc2ccc(NC(=O)c3ccccc3C)cc2)cc1	–	inconclusive: 10.9% [activator]
CCOC(=O)c1cc2c(=O)n3cccc(C)c3nc2n(Cc2ccco2)c1=NC(=O)c1ccccc1	inconclusive [activator, partial curve]	–
O=C(NCCNC(=O)c1ccco1)c1cccc(F)c1	inconclusive [inhibitor, single point]	–
O=C(Nc1ccc2oc(-c3ccc4ccccc4c3)nc2c1)c1ccc2c(c1)OCCO2	inconclusive [activator, partial curve]	–
Fc1ccc(-n2c(-c3cccs3)nc3nc4ccccc4nc32)cc1	inconclusive [activator, partial curve]	–
COc1ccc(C=O)cc1Oc1nc(Cl)ncc1F	inconclusive [activator, full curve, poor fit]	–
Cn1c(N)c(C(=O)COC(=O)CSc2ccc3ccccc3c2)c(=O)n(C)c1=O	inconclusive [inhibitor, full curve]	–

SMILES	Potency	activity change, negative = inhibition
CCOc1ccc(/C=N/NC(=O)Cc2csc(Nc3cccc(C(F)(F)F)c3)n2)cc1	–	inconclusive: -15.5% [inhibitor]
Cn1c(=O)[nH]c(=O)c2c1nc(Br)n2Cc1ccccc1Cl	–	inconclusive: -15.1% [inhibitor]
O=C1NC(c2cccs2)Nc2sc3c(c21)CCCC3 (stereo not given)	inconclusive [activator, single point]	–
CCCCCCCC(=O)NC(Nc1ccc(S(N)(=O)=O)cc1)C(Cl)(Cl)Cl (stereo not given)	inconclusive [inhibitor, full curve, poor fit]	–
COc1ccccc1C(=O)n1nc(-c2ccco2)nc1SC	inconclusive [inhibitor, single point]	–
O=C(COc1ccccc1/C=C1\SC(=O)NC1=O)Nc1ccccc1	inconclusive [inhibitor, single point]	–
O=C(Nc1ccc(Cl)c(S(=O)(=O)N2CCOCC2)c1)c1ccccc1-c1ccc(C(F)(F)F)cc1	inconclusive [inhibitor, single point]	–
O=C(NC(=S)Nc1ccc(N2CCCC2)cc1)c1ccccc1[N+](=O)[O-]	–	inactive: 5.16%
O=C1CC(c2ccccc2)CC(O)=C1C=NCCCO (stereo not given)	inconclusive [inhibitor, single point]	–
Cc1ccc(C(=O)C[n+]2cc(Br)cc(Br)c2)cc1[N+](=O)[O-]	inconclusive [inhibitor, partial curve, poor fit]	–
CC(C)C(=O)Nc1ccc(NC(=O)c2cccs2)cn1	–	inactive: 3.62%
Cc1ccc2c(c1)NC(=O)C(CC(=O)NCCCN1CCN(c3cc(C)ccc3C)CC1)O2 (stereo not given)	inconclusive [inhibitor, full curve, poor fit]	–
CN(C)/C=N/c1sccc1C(N)=O	inconclusive [inhibitor, full curve, poor fit]	–
COc1ccc(-c2cc(C(F)(F)F)n3ncc(C(=O)N4CCCCC4c4cccnc4)c3n2)cc1 (stereo not given)	inconclusive [activator, single point]	–
CCn1nc(C)c(CN2CCc3c([nH]c4ccccc34)C2c2ccc(F)c(OC)c2)c1C (stereo not given)	inconclusive [inhibitor, single point]	–
O=C1CSC(c2ccccc2Br)N1c1ccc(Cl)cn1 (stereo not given)	inconclusive [inhibitor, single point]	–
COC(=O)c1ccc(NC(=O)c2ccccc2SC)cc1	inconclusive [inhibitor, single point]	–
CCCCn1c(=O)[nH]c(=O)c2c1nc(-c1ccc(-c3ccccc3Br)o1)n2CC	–	inactive: -0.0495%
CCCSc1nc2sc3c(c2c(=O)[nH]1)CCN(Cc1ccccc1)C3	inconclusive [activator, partial curve]	–
CCOC(=O)CN(C(=O)CSc1nnc(CNc2ccc(C)cc2C)n1CC)c1ccccc1	–	inconclusive: -15.7% [inhibitor]
O=C1CC(Nc2ccc(N3CCOCC3)cc2)C(=O)N1CCc1ccccc1 (stereo not given)	inconclusive [inhibitor, single point]	–
Cc1ccc2sc(NNC(=O)C3=COCCO3)nc2c1C	–	inactive: -2.75%

SMILES	Potency	activity change, negative = inhibition
CCCC(C)NC(=O)COC(=O)c1ccccc1SCC(=O)NC(C)CCC (stereo not given)	inconclusive [activator, full curve, poor fit]	–
Cc1c(N=Cc2c(O)n(C)c(=O)c3ccccc23)c(=O)n(-c2ccccc2)n1C	–	inconclusive: 17.7% [activator]
CSc1nc(N(C)NC(=O)c2ccccc2)c2ccccc2n1	inconclusive [inhibitor, full curve]	–
CCn1c(SCC(=O)N2CCc3ccccc3C2)nc2sc(C)c(C)c2c1=O	inconclusive [inhibitor, single point]	–
Cc1cc2ncn(S(=O)(=O)N(C)C)c2cc1C	inconclusive [inhibitor, partial curve]	–
CCc1nc2cc(Cl)c(Cl)cc2[nH]1	inconclusive [activator, single point]	–
COCCNC(=O)CSc1nc2cc(OC)c(OC)cc2c(=O)n1CCC1=CCCCC1	inconclusive [inhibitor, single point]	–
Cc1cc(C)nc(N2CCN(c3nc(C)cc(C)n3)CC2)n1	–	inconclusive: -19.5% [inhibitor]
Cc1ccc2cc(C#N)c(NCCNC(=S)NCCCN(C)C)nc2c1C	inconclusive [activator, full curve, poor fit]	–
COc1ccc(CCNC(=O)CN(c2ccc(OC)c(OC)c2)S(C)(=O)=O)cc1OC	inconclusive [inhibitor, single point]	–
Cc1ccc(S(=O)(=O)N2CCN(S(=O)(=O)c3ccccc3)C2)cc1	inconclusive [inhibitor, single point]	–
CCN1C(=O)c2cccc3c(S(=O)(=O)Nc4ccccn4)ccc1c23	–	inactive: -18.4%
COc1cccc(-c2ccc(C#N)c(OC(=O)c3ccc(Cl)cc3)n2)c1	inconclusive [activator, partial curve]	–
O=C(N/C(=C\c1ccccc1)C(=O)N1CCN(CCO)CC1)c1ccccc1	inconclusive [inhibitor, full curve, poor fit]	–
CN(C)c1oc(COc2ccccc2F)nc1C#N	inconclusive [inhibitor, single point]	–
CCCCc1cc(=O)oc2c(CN(C)C)c(O)c(Cl)cc12	inconclusive [activator, partial curve]	–
Cc1c(C#N)c(N)nc2c3c(sc12)NC(=O)CC3c1ccc(Cl)cc1 (stereo not given)	inconclusive [activator, full curve]	–
O=c1[nH]c(=O)c2nc3c4ccccc4c4ccccc4c3nc2[nH]1	–	inactive: 1.52%
CC1(CCc2ccc3c(c2)OCO3)NC(=O)c2ccccc2N1 (stereo not given)	inconclusive [activator, single point]	–
CCCCCCCCCCS(=O)(=O)N/N=C/c1ccc([N+](=O)[O-])cc1	inconclusive [inhibitor, single point]	–
CCn1c(CNc2ccc(Cl)cc2)nnc1SCC#N	–	inconclusive: 16.8% [activator]
